Reference: the supplement of paper PMC7125110
± gives the standard error. Variants at the background level are over-represented here.

B1: glmS ribozyme (parent)
chain: AUAAAAGCGCCAGAACUACAGAAAUGUAGUUGACGAGGAGGAGGUUUAUCGAAUUUUCGGCGGAUGCCUCCAAA

Columns and labels:
Settings in all cases: with glucosamine-6-phosphate
[1] = variants of: B1; experiment: self-cleavage kobs at 640 uM GlcN6P; higher = faster cleavage; RNA array
In short: (§1)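 Barcoded ribozyme variants on sequenced MiSeq chips were transcribed in situ by E. coli RNA polymerase and followed at 37 °C through a hybridised Cy3 probe. Glucosamine-6-phosphate at 40 μM to 10 mM in HEPES/KCl/Mg(OAc)2 buffer was flowed in, and tiles were imaged over ~14 h. Signals were normalised to baseline and to non-cleaving reference variants, and per-tile medians were fit to one- or two-exponential decays to give kobs. Weighted Michaelis–Menten fits across concentrations gave kcat and KM.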

[2] = variants of: B1; experiment: self-cleavage kobs at 2500 uM GlcN6P; higher = faster cleavage; RNA array
In short: as §1

[3] = variants of: B1; experiment: self-cleavage kobs at 160 uM GlcN6P; higher = faster cleavage; RNA array
In short: as §1

[4] = variants of: B1; experiment: self-cleavage kobs at 10000 uM GlcN6P; higher = faster cleavage; RNA array
In short: as §1

## A15C C16U U17A A18C C19A A20G G21A A24U U31G G60U
[1]
  self-cleavage kobs at 640 uM GlcN6P: < 1e-05 s⁻¹

## G13C G40C A48G C61G C70A
[1]
  self-cleavage kobs at 640 uM GlcN6P: < 1e-05 s⁻¹
[2]
  self-cleavage kobs at 2500 uM GlcN6P: < 1e-05 s⁻¹

## G13U G32A C70A
[1]
  self-cleavage kobs at 640 uM GlcN6P: 5.59e-05 ± 2.4e-05 s⁻¹
[2]
  self-cleavage kobs at 2500 uM GlcN6P: 0.000106 ± 3.2e-05 s⁻¹

## A15C C50A U65C
[1]
  self-cleavage kobs at 640 uM GlcN6P: < 1e-05 s⁻¹

## G13U G40A G43C U49C C68G
[1]
  self-cleavage kobs at 640 uM GlcN6P: < 1e-05 s⁻¹

## A15U A33U U65A
[1]
  self-cleavage kobs at 640 uM GlcN6P: < 1e-05 s⁻¹
[3]
  self-cleavage kobs at 160 uM GlcN6P: < 1e-05 s⁻¹

## G13C U47A G63C
[1]
  self-cleavage kobs at 640 uM GlcN6P: < 1e-05 s⁻¹
[2]
  self-cleavage kobs at 2500 uM GlcN6P: < 1e-05 s⁻¹

## A15G U49A C58A U69A C70U
[1]
  self-cleavage kobs at 640 uM GlcN6P: 0.00014 ± 3.9e-05 s⁻¹

## A14G U69A C70A
[1]
  self-cleavage kobs at 640 uM GlcN6P: 5.74e-05 ± 2.2e-05 s⁻¹

## A14C G32A C34A
[1]
  self-cleavage kobs at 640 uM GlcN6P: < 1e-05 s⁻¹
[2]
  self-cleavage kobs at 2500 uM GlcN6P: < 1e-05 s⁻¹

## A14C C34U
[1]
  self-cleavage kobs at 640 uM GlcN6P: < 1e-05 s⁻¹
[3]
  self-cleavage kobs at 160 uM GlcN6P: < 1e-05 s⁻¹
[2]
  self-cleavage kobs at 2500 uM GlcN6P: < 1e-05 s⁻¹
[4]
  self-cleavage kobs at 10000 uM GlcN6P: < 1e-05 s⁻¹

## A15G A36G U49A C70U
[1]
  self-cleavage kobs at 640 uM GlcN6P: < 1e-05 s⁻¹

## A15C G29U G41A A64U
[1]
  self-cleavage kobs at 640 uM GlcN6P: < 1e-05 s⁻¹

## G13A U31A A33U C70U
[1]
  self-cleavage kobs at 640 uM GlcN6P: < 1e-05 s⁻¹
[3]
  self-cleavage kobs at 160 uM GlcN6P: < 1e-05 s⁻¹
[2]
  self-cleavage kobs at 2500 uM GlcN6P: < 1e-05 s⁻¹

## A15G C16A G60U
[1]
  self-cleavage kobs at 640 uM GlcN6P: < 1e-05 s⁻¹
[3]
  self-cleavage kobs at 160 uM GlcN6P: < 1e-05 s⁻¹

## G13A A15U A42G G66C
[1]
  self-cleavage kobs at 640 uM GlcN6P: < 1e-05 s⁻¹
[2]
  self-cleavage kobs at 2500 uM GlcN6P: < 1e-05 s⁻¹

## A14U U30G G40C G41U C50G
[1]
  self-cleavage kobs at 640 uM GlcN6P: < 1e-05 s⁻¹
[2]
  self-cleavage kobs at 2500 uM GlcN6P: < 1e-05 s⁻¹

## A14C A52U C61A
[1]
  self-cleavage kobs at 640 uM GlcN6P: < 1e-05 s⁻¹
[3]
  self-cleavage kobs at 160 uM GlcN6P: < 1e-05 s⁻¹

## G13A G35A U46A
[1]
  self-cleavage kobs at 640 uM GlcN6P: < 1e-05 s⁻¹
[3]
  self-cleavage kobs at 160 uM GlcN6P: < 1e-05 s⁻¹
[2]
  self-cleavage kobs at 2500 uM GlcN6P: < 1e-05 s⁻¹

## C16G A33U U46G G51A C68U C71A
[1]
  self-cleavage kobs at 640 uM GlcN6P: < 1e-05 s⁻¹

## G13U G35C G38C G43C C67A
[1]
  self-cleavage kobs at 640 uM GlcN6P: < 1e-05 s⁻¹

## A15G C16G A42G C67G
[1]
  self-cleavage kobs at 640 uM GlcN6P: 0.000348 ± 6.7e-05 s⁻¹
[3]
  self-cleavage kobs at 160 uM GlcN6P: 7.28e-05 ± 3.4e-05 s⁻¹
[2]
  self-cleavage kobs at 2500 uM GlcN6P: 0.000115 ± 3.5e-05 s⁻¹
[4]
  self-cleavage kobs at 10000 uM GlcN6P: 0.000521 ± 0.00022 s⁻¹

## A15C A33U U56C C67A U69G
[1]
  self-cleavage kobs at 640 uM GlcN6P: < 1e-05 s⁻¹

## A15G G38U
[1]
  self-cleavage kobs at 640 uM GlcN6P: < 1e-05 s⁻¹

## A14U C34U G37C G51A U55C
[1]
  self-cleavage kobs at 640 uM GlcN6P: < 1e-05 s⁻¹

## G13C A48U C50U
[1]
  self-cleavage kobs at 640 uM GlcN6P: < 1e-05 s⁻¹
[2]
  self-cleavage kobs at 2500 uM GlcN6P: < 1e-05 s⁻¹

## G13U G63A C71U
[1]
  self-cleavage kobs at 640 uM GlcN6P: < 1e-05 s⁻¹
[2]
  self-cleavage kobs at 2500 uM GlcN6P: < 1e-05 s⁻¹

## A14U A42U A64C
[1]
  self-cleavage kobs at 640 uM GlcN6P: < 1e-05 s⁻¹
[2]
  self-cleavage kobs at 2500 uM GlcN6P: < 1e-05 s⁻¹

## A15U U45C G66U C67G
[1]
  self-cleavage kobs at 640 uM GlcN6P: 7.69e-05 ± 2.9e-05 s⁻¹
[2]
  self-cleavage kobs at 2500 uM GlcN6P: 0.000193 ± 5.8e-05 s⁻¹

## C16G A39C
[1]
  self-cleavage kobs at 640 uM GlcN6P: 0.000184 ± 2.9e-05 s⁻¹
[3]
  self-cleavage kobs at 160 uM GlcN6P: 4.38e-05 ± 9.6e-06 s⁻¹
[2]
  self-cleavage kobs at 2500 uM GlcN6P: 0.000427 ± 6.6e-05 s⁻¹
[4]
  self-cleavage kobs at 10000 uM GlcN6P: 0.000629 ± 7.2e-05 s⁻¹

## C16A A64C C67G U69G
[1]
  self-cleavage kobs at 640 uM GlcN6P: < 1e-05 s⁻¹

## G13U G32C A33U C68G C71U
[1]
  self-cleavage kobs at 640 uM GlcN6P: < 1e-05 s⁻¹
[3]
  self-cleavage kobs at 160 uM GlcN6P: < 1e-05 s⁻¹
[2]
  self-cleavage kobs at 2500 uM GlcN6P: < 1e-05 s⁻¹
[4]
  self-cleavage kobs at 10000 uM GlcN6P: < 1e-05 s⁻¹

## A15C C16U U17A A18C C19A A36G G44U
[1]
  self-cleavage kobs at 640 uM GlcN6P: < 1e-05 s⁻¹

## G13A G37A G66C
[1]
  self-cleavage kobs at 640 uM GlcN6P: < 1e-05 s⁻¹

## G13U C34G U45C U47A
[1]
  self-cleavage kobs at 640 uM GlcN6P: < 1e-05 s⁻¹
[2]
  self-cleavage kobs at 2500 uM GlcN6P: < 1e-05 s⁻¹

## A14C G32U
[1]
  self-cleavage kobs at 640 uM GlcN6P: 0.000206 ± 3e-05 s⁻¹
[3]
  self-cleavage kobs at 160 uM GlcN6P: 6.08e-05 ± 2.1e-05 s⁻¹
[2]
  self-cleavage kobs at 2500 uM GlcN6P: 0.000576 ± 7.9e-05 s⁻¹
[4]
  self-cleavage kobs at 10000 uM GlcN6P: 0.00103 ± 0.00012 s⁻¹

## A14G G35A U47C C67A
[1]
  self-cleavage kobs at 640 uM GlcN6P: < 1e-05 s⁻¹
[3]
  self-cleavage kobs at 160 uM GlcN6P: < 1e-05 s⁻¹

## A15G U31C G38C
[1]
  self-cleavage kobs at 640 uM GlcN6P: < 1e-05 s⁻¹

## G13U G29U A39G
[1]
  self-cleavage kobs at 640 uM GlcN6P: 0.000115 ± 2.8e-05 s⁻¹
[2]
  self-cleavage kobs at 2500 uM GlcN6P: 7.21e-05 ± 2.3e-05 s⁻¹

## A14C U30C A52U G60C
[1]
  self-cleavage kobs at 640 uM GlcN6P: < 1e-05 s⁻¹
[2]
  self-cleavage kobs at 2500 uM GlcN6P: < 1e-05 s⁻¹

## C16A G66A
[1]
  self-cleavage kobs at 640 uM GlcN6P: 0.000223 ± 5e-05 s⁻¹
[3]
  self-cleavage kobs at 160 uM GlcN6P: 6.8e-05 ± 3.1e-05 s⁻¹

## G13C C61G C68U
[1]
  self-cleavage kobs at 640 uM GlcN6P: < 1e-05 s⁻¹
[2]
  self-cleavage kobs at 2500 uM GlcN6P: < 1e-05 s⁻¹

## A15G U31A G35U C67G
[1]
  self-cleavage kobs at 640 uM GlcN6P: < 1e-05 s⁻¹
[3]
  self-cleavage kobs at 160 uM GlcN6P: < 1e-05 s⁻¹
[2]
  self-cleavage kobs at 2500 uM GlcN6P: < 1e-05 s⁻¹

## A14U U46C U49A
[1]
  self-cleavage kobs at 640 uM GlcN6P: < 1e-05 s⁻¹
[3]
  self-cleavage kobs at 160 uM GlcN6P: < 1e-05 s⁻¹
[2]
  self-cleavage kobs at 2500 uM GlcN6P: < 1e-05 s⁻¹

## G13U G29U G40A C50U
[1]
  self-cleavage kobs at 640 uM GlcN6P: < 1e-05 s⁻¹
[2]
  self-cleavage kobs at 2500 uM GlcN6P: < 1e-05 s⁻¹
[4]
  self-cleavage kobs at 10000 uM GlcN6P: < 1e-05 s⁻¹

## A14U G43C A48C U55G
[1]
  self-cleavage kobs at 640 uM GlcN6P: < 1e-05 s⁻¹
[3]
  self-cleavage kobs at 160 uM GlcN6P: < 1e-05 s⁻¹
[2]
  self-cleavage kobs at 2500 uM GlcN6P: < 1e-05 s⁻¹

## A15U G40U A48C
[1]
  self-cleavage kobs at 640 uM GlcN6P: < 1e-05 s⁻¹
[3]
  self-cleavage kobs at 160 uM GlcN6P: < 1e-05 s⁻¹

## C16A G51U U69G
[1]
  self-cleavage kobs at 640 uM GlcN6P: 9.84e-05 ± 4.1e-05 s⁻¹
[2]
  self-cleavage kobs at 2500 uM GlcN6P: 0.000199 ± 9.6e-05 s⁻¹

## A14C A53G A64U
[1]
  self-cleavage kobs at 640 uM GlcN6P: < 1e-05 s⁻¹
[3]
  self-cleavage kobs at 160 uM GlcN6P: < 1e-05 s⁻¹

## A14C G51C
[1]
  self-cleavage kobs at 640 uM GlcN6P: < 1e-05 s⁻¹
[2]
  self-cleavage kobs at 2500 uM GlcN6P: < 1e-05 s⁻¹
[4]
  self-cleavage kobs at 10000 uM GlcN6P: < 1e-05 s⁻¹

## G13A G35U C50U
[1]
  self-cleavage kobs at 640 uM GlcN6P: < 1e-05 s⁻¹

## A14G A33G A53U G62A
[1]
  self-cleavage kobs at 640 uM GlcN6P: < 1e-05 s⁻¹
[3]
  self-cleavage kobs at 160 uM GlcN6P: < 1e-05 s⁻¹
[2]
  self-cleavage kobs at 2500 uM GlcN6P: < 1e-05 s⁻¹

## G13A G32C
[1]
  self-cleavage kobs at 640 uM GlcN6P: 6.56e-05 ± 8.7e-06 s⁻¹
[2]
  self-cleavage kobs at 2500 uM GlcN6P: 0.000136 ± 1.8e-05 s⁻¹
[4]
  self-cleavage kobs at 10000 uM GlcN6P: 0.000388 ± 5.3e-05 s⁻¹

## G13A A15G
[1]
  self-cleavage kobs at 640 uM GlcN6P: 0.000327 ± 5.6e-05 s⁻¹
[3]
  self-cleavage kobs at 160 uM GlcN6P: 6.23e-05 ± 1.3e-05 s⁻¹
[2]
  self-cleavage kobs at 2500 uM GlcN6P: 0.000431 ± 7.3e-05 s⁻¹
[4]
  self-cleavage kobs at 10000 uM GlcN6P: 0.000784 ± 0.00011 s⁻¹

## G13A A15C
[1]
  self-cleavage kobs at 640 uM GlcN6P: 5.24e-05 ± 1.1e-05 s⁻¹
[2]
  self-cleavage kobs at 2500 uM GlcN6P: 9.3e-05 ± 2.5e-05 s⁻¹
[4]
  self-cleavage kobs at 10000 uM GlcN6P: 0.000198 ± 2.6e-05 s⁻¹

## A14G C58G G60U G63C
[1]
  self-cleavage kobs at 640 uM GlcN6P: < 1e-05 s⁻¹
[4]
  self-cleavage kobs at 10000 uM GlcN6P: < 1e-05 s⁻¹
